Measurements as given in ChEMBL document CHEMBL1157539, “Thousands of chemical starting points for antimalarial lead identification” (Nature, 2010).
The full ranking holds about 13,000 compounds; the median of “IFI” is about 4, and the highest 2% start at about 17. The list shows a part of the results.

assay: GSK_TCMDC: Inhibition Frequency Index (IFI). The number of non-kinase HTS assays where a compound showed > 50 % inhibition, expressed as a percentage of the number of such assays in which the compound was tested (-0 is zero); format: functional

| Structure (SMILES) | IFI [%] |
| --- | --- |
| Cc1ccc2c(c1)NCC21CCN(C[C@@H](O)C2CCN(c3ccnc(Cl)c3)CC2)CC1C (some centres undefined) | 0 |
| CCCN(CCC)CCCN(CCCN(CCC)CCC)c1cc(C)nc(Nc2ccc3cc(Br)ccc3c2)n1 | 12.8 |
| COc1cc(OC)c(OC)cc1CN1CCC2(CC1)CN(Cc1ccc(Cl)c(Cl)c1)C(=O)O2 | 4.11 |
| COc1ccc2nccc([C@@H](O)CN3CCC(NCc4cc5ccc(Cl)cc5[nH]4)CC3)c2c1 | 6.47 |
| CC(C)(Oc1c(C2CCN(CCCCNC(=O)c3ccc(-c4ccc(Cl)cc4)cc3)CC2)ccc2c1CCCC2)C(N)=O | 11.4 |
| Cc1cc(NC(=O)[C@H](CC2CCCCC2)Nc2ccc(C#N)c3ccccc23)ccc1F | 7.55 |
| Cc1ccc2[nH]c(-c3ccccc3Nc3ccnc4cc(-c5nccs5)ccc34)nc2c1 | 7.14 |
| Cc1ccc(Cn2ncc(N3CC(C)NC(C)C3)c(Cl)c2=O)cc1NC(=O)Nc1ccc(-c2ccccc2)cc1 (centres undefined) | 4.17 |
| COc1ccc(S(=O)(=O)NC2CCN(c3cc(C)nc(Nc4cccc(C#N)c4)n3)CC2)cc1 | 4 |
| O=C(/C=C/c1ccc(Cl)c(Cl)c1)N1CCN(C(=O)Nc2cccc(C(F)(F)F)c2)CC1 | 24.2 |
| CCN(CC)S(=O)(=O)n1ncc2c3c(N)nc(N)nc3ccc21 | 1.38 |
| CCCCOC(=O)C1=C(C)NC2=C(C(=O)CC(c3ccc(OC)c(OC)c3)C2)C1c1ccc(O)cc1 (centres undefined) | 2.78 |
| O=C(/C=C/c1ccc(Cl)cc1)NCCCCCN1CCC(C(=O)Nc2cccc(Cl)c2)CC1 | 9.52 |
| O=C(/C=C/c1ccc(Cl)c(Cl)c1)N1CCN(C(=O)Nc2ccc(C(F)(F)F)cc2)CC1 | 22.1 |
| N#Cc1nc2ccc(OCCN(Cc3ccccc3C(F)(F)F)c3ccc(C#N)c(C(F)(F)F)c3)cc2s1 | 3.13 |
| COCc1ccccc1C(=O)NCCOc1cc(C)cc(C)c1 | -0 |
| O=C(NCc1cccc(C(F)(F)F)c1)c1ccc(-c2nc3cc(F)c(F)cc3[nH]2)cc1 | 0.72 |
| CS(=O)(=O)N(c1cccc(F)c1)c1cc(C(=O)N[C@@H](Cc2ccccc2)[C@H](O)CNCc2cccc(C(F)(F)F)c2)cc(N2CCCC2=O)c1 | 5.93 |
| Cc1cccc2nc(-c3ccc(-c4cccc(NC(=O)CN5CCN(C)CC5)c4)s3)[nH]c12 | 6.31 |
| Cc1ccc(C)c(Cn2ccc3nc(N)nc(N)c32)c1 | 3.65 |
| CCc1cccc(-c2cc(N)n(C)c3nc(N)nc(=O)c2-3)c1 | -0 |
| CCCNS(=O)(=O)c1ccc(NC(=O)C(C)Oc2ccc([N+](=O)[O-])cc2)cc1 (centres undefined) | 17.5 |

| Structure (SMILES) | IFI [%] |
| --- | --- |
| CC(C)C[C@@H](/C=N/N1CC(=O)NC1=O)NC(=O)[C@H](CC(C)C)NC(=O)c1ccc(OCCN2CCOCC2)cc1 | 5.45 |
| CC1(C)NC(N)=NC(=N)N1OCc1ccc(-c2ccccc2)cc1 | 7.86 |
| COC(=O)c1ccc(-c2ccc(-c3cccnc3)cc2C)cc1 | 21.7 |
| c1ccc(CN2CCC(NCc3ccccc3-c3ccc(CNCc4ccc5c(c4)OCO5)cc3)CC2)cc1 | 10.9 |
| COc1ccc(-n2c(=O)c3c(n4c(SC(C)C)nnc24)-c2ccccc2CC32CCCCC2)cc1 | 0.83 |
| CN(C)Cc1cccc(-c2ccc(NC(=O)c3ccc4c(=O)n(CC5CCCO5)cnc4c3)cc2)c1 (centres undefined) | 2 |
| Cc1cc(N[C@@H](Cc2ccccc2)C(=O)NCc2cccs2)nc(Nc2ccccc2)n1 | 2.33 |
| CCN(CC)CC(O)Cc1c2ccc([N+](=O)[O-])cc2nc2cc(OC)c(OC)cc12 (centres undefined) | 2.82 |
| NC(=O)c1cccc(-n2ccc3cc(CNC4Cc5ccccc5C4)ccc32)c1 | 3.85 |
| N#Cc1cc(N(CCCOc2cccc(OC(F)(F)F)c2)Cc2ccccc2C(F)(F)F)ccc1C(F)(F)F | 0 |
| COc1ccc(Nc2ncc(C#N)c(Nc3ccccc3C(N)=O)n2)cc1N1CCN(C)CC1 | 11.5 |
| CN1CCCN(c2ccnc3cc4c(cc23)N(C(=O)c2ccc(Cl)cc2)CC4)CC1 | 0.73 |
| NC(=O)c1cnc2cc(-c3ccncc3)cc(Nc3ccc(NC(=O)C4CCCCC4)cc3)c2c1 | 2.16 |
| COc1cc(Cc2cnc(NCCN3CCNCC3)nc2N)ccc1OCc1ccc(C(F)(F)F)cc1 | 6 |
| NCc1ccc(CNCc2cccc(-c3cccc(-c4nc5ccccc5[nH]4)c3)c2)cc1 | 7 |
| CS(=O)(=O)c1ccc(CNCc2cccc(-c3cccc(-c4nc5ccccc5[nH]4)c3)c2)cc1 | 2.88 |
| CC(C)(CNC(=O)[C@H]1CCCN1)c1nc(-c2ccc(Cl)c(O)c2)c(-c2ccncc2)[nH]1 | 0.79 |
| CN(CCN)Cc1ccc(-c2ccc(-c3nc4cc(C(F)(F)F)ccc4[nH]3)s2)cc1 | 11.9 |
| O=C(Nc1ccc(-c2ccc(-c3nc4ccccc4[nH]3)cc2)cc1)Nc1ccc(Cl)c(Cl)c1 | 3.96 |
| CC(=O)Nc1ccc(C#Cc2ccc(-c3c(C)[nH]c(C)c(Cl)c3=O)cc2)cc1 | 0.88 |
| CCCC(C)NC(=O)c1cnn(-c2ccc(C(C)(C)C)cc2)c1OCc1ccc(Br)cc1 (centres undefined) | 2.86 |
| O=C(NCC1CCN(CC2CCCCC2)C1)c1cc(-c2cccc(Cl)c2)cs1 (centres undefined) | 8 |
